What was measured:
Assay type in all cases: in vivo
[1] = tested on: Alternaia brassicicola; experiment: Test Example C: Alternaria sooty spot on cabbage; settings: Alternaria sooty spot on cabbage
From the text: [Test Example C] Alternaria Sooty Spot on Cabbage
Seeds of a test plant (cabbage variety: Shikidori) were planted followed by cultivating until the cotyledons extended.

[2] = tested on: Botrytis cinerea; experiment: Test Example B: Gray mold on tomato; settings: Gray mold on tomato
From the text: [Test Example B] Gray Mold on Tomato
Seeds of a test plant (tomato variety: Oogata Fukuju) were planted followed by cultivating until three to five first leaves (true leaves) appeared.

[3] = tested on: Blumeria graminis f sp. hordei; experiment: Test Example D: Powdery mildew on barley; settings: Powdery mildew on barley
From the text: [Test Example D] Powdery Mildew on Barley
After the sprayed dilutions were dried, conidia of Blumeria graminis f sp. hordei were inoculated to the plants by shaking off.

[4] = tested on: Puccinia recondita; experiment: Test Example E: Brown rust on wheat; settings: Brown rust on wheat
From the text: [Test Example E] Brown Rust on Wheat

SMILES: COc1cc(OC)c(Cl)c(-c2ccc(=O)n(C)c2-c2c(F)cccc2F)c1 [Compound 30]
- Test C control value [1]: H (H shows more than 50% of control values)
- Test B control value [2]: H (H shows more than 50% of control values)
- Test D control value [3]: H (H shows more than 50% of control values)
- Test E control value [4]: H (H shows more than 50% of control values)

SMILES: COc1cc(-c2ccc(=O)n(C)c2-c2c(F)cccc2F)cc(OC)c1Cl [Compound 31]
- Test C control value [1]: H (H shows more than 50% of control values)
- Test B control value [2]: H (H shows more than 50% of control values)
- Test D control value [3]: H (H shows more than 50% of control values)
- Test E control value [4]: H (H shows more than 50% of control values)

SMILES: CCN1C(=O)CCC(c2ccc(F)cc2Cl)=C1c1c(F)cc(OC)cc1F [Compound 33]
- Test C control value [1]: H (H shows more than 50% of control values)
- Test B control value [2]: H (H shows more than 50% of control values)
- Test D control value [3]: H (H shows more than 50% of control values)
- Test E control value [4]: H (H shows more than 50% of control values)

SMILES: CCn1c(-c2c(F)cc(OC)cc2F)c(-c2ccc(F)cc2Cl)cc(Br)c1=O [Compound 34]
- Test C control value [1]: H (H shows more than 50% of control values)
- Test B control value [2]: H (H shows more than 50% of control values)
- Test D control value [3]: H (H shows more than 50% of control values)
- Test E control value [4]: H (H shows more than 50% of control values)

SMILES: CCn1c(-c2c(F)cc(OC)cc2F)c(-c2ccc(F)cc2Cl)ccc1=O [Compound 35]
- Test C control value [1]: H (H shows more than 50% of control values)
- Test B control value [2]: H (H shows more than 50% of control values)
- Test D control value [3]: H (H shows more than 50% of control values)
- Test E control value [4]: H (H shows more than 50% of control values)

SMILES: COc1cc(F)c(C2=C(c3ccc(F)cc3Cl)CCC(=O)N2C)c(F)c1 [Compound 36]
- Test C control value [1]: H (H shows more than 50% of control values)
- Test B control value [2]: H (H shows more than 50% of control values)
- Test D control value [3]: H (H shows more than 50% of control values)
- Test E control value [4]: H (H shows more than 50% of control values)

SMILES: COc1cc(F)c(-c2c(-c3ccc(F)cc3Cl)ccc(=O)n2C)c(F)c1 [Compound 37]
- Test C control value [1]: H (H shows more than 50% of control values)
- Test B control value [2]: H (H shows more than 50% of control values)
- Test D control value [3]: H (H shows more than 50% of control values)
- Test E control value [4]: H (H shows more than 50% of control values)

SMILES: COc1cc(F)c(-c2c(-c3ccc(F)cc3Cl)cc(Br)c(=O)n2C)c(F)c1 [Compound 38]
- Test C control value [1]: H (H shows more than 50% of control values)
- Test B control value [2]: H (H shows more than 50% of control values)
- Test D control value [3]: H (H shows more than 50% of control values)
- Test E control value [4]: H (H shows more than 50% of control values)

SMILES: CCn1c(-c2c(F)cccc2F)c(-c2cc(OC)c(Br)c(OC)c2)ccc1=O [Compound 39]
- Test C control value [1]: H (H shows more than 50% of control values)
- Test B control value [2]: H (H shows more than 50% of control values)
- Test D control value [3]: H (H shows more than 50% of control values)
- Test E control value [4]: H (H shows more than 50% of control values)

SMILES: CCn1c(-c2c(F)cccc2F)c(-c2cc(OC)c(Cl)c(OC)c2)ccc1=O [Compound 40]
- Test C control value [1]: H (H shows more than 50% of control values)
- Test B control value [2]: H (H shows more than 50% of control values)
- Test D control value [3]: H (H shows more than 50% of control values)
- Test E control value [4]: H (H shows more than 50% of control values)

SMILES: CCCn1c(-c2c(F)cccc2F)c(-c2cc(OC)cc(OC)c2)ccc1=O [Compound 41]
- Test C control value [1]: L (L shows 50% or less of control values)
- Test B control value [2]: L (L shows 50% or less of control values)
- Test D control value [3]: L (L shows 50% or less of control values)
- Test E control value [4]: H (H shows more than 50% of control values)

SMILES: CCCn1c(-c2c(F)cccc2F)c(-c2cc(OC)cc(OC)c2Br)ccc1=O [Compound 42]
- Test C control value [1]: H (H shows more than 50% of control values)
- Test B control value [2]: H (H shows more than 50% of control values)
- Test D control value [3]: H (H shows more than 50% of control values)
- Test E control value [4]: H (H shows more than 50% of control values)

SMILES: C=CCN1C(=O)CCC(c2ccc(F)cc2Cl)=C1c1c(F)cc(OC)cc1F [Compound 43]
- Test C control value [1]: H (H shows more than 50% of control values)
- Test B control value [2]: L (L shows 50% or less of control values)
- Test D control value [3]: H (H shows more than 50% of control values)
- Test E control value [4]: H (H shows more than 50% of control values)

SMILES: C=CCn1c(-c2c(F)cc(OC)cc2F)c(-c2ccc(F)cc2Cl)ccc1=O [Compound 44]
- Test C control value [1]: H (H shows more than 50% of control values)
- Test B control value [2]: H (H shows more than 50% of control values)
- Test D control value [3]: H (H shows more than 50% of control values)
- Test E control value [4]: H (H shows more than 50% of control values)

SMILES: COc1cc(F)c(-c2c(-c3ccc(F)cc3Cl)ccc(=O)n2CCF)c(F)c1 [Compound 45]
- Test C control value [1]: H (H shows more than 50% of control values)
- Test B control value [2]: H (H shows more than 50% of control values)
- Test D control value [3]: H (H shows more than 50% of control values)
- Test E control value [4]: H (H shows more than 50% of control values)

SMILES: CCn1c(-c2c(F)cccc2F)c(-c2ccccc2)ccc1=O [Compound 46]
- Test C control value [1]: H (H shows more than 50% of control values)
- Test B control value [2]: H (H shows more than 50% of control values)
- Test D control value [3]: H (H shows more than 50% of control values)
- Test E control value [4]: H (H shows more than 50% of control values)

SMILES: Cn1c(-c2c(F)cccc2F)c(-c2ccccc2)ccc1=O [Compound 47]
- Test C control value [1]: H (H shows more than 50% of control values)
- Test B control value [2]: H (H shows more than 50% of control values)
- Test D control value [3]: H (H shows more than 50% of control values)
- Test E control value [4]: H (H shows more than 50% of control values)

SMILES: CCn1c(-c2c(F)cccc2F)c(-c2ccccc2)cc(Cl)c1=O [Compound 48]
- Test C control value [1]: H (H shows more than 50% of control values)
- Test B control value [2]: L (L shows 50% or less of control values)
- Test D control value [3]: L (L shows 50% or less of control values)
- Test E control value [4]: L (L shows 50% or less of control values)

SMILES: Cn1c(-c2c(F)cccc2F)c(-c2ccccc2)cc(Cl)c1=O [Compound 49]
- Test C control value [1]: H (H shows more than 50% of control values)
- Test B control value [2]: H (H shows more than 50% of control values)
- Test D control value [3]: L (L shows 50% or less of control values)
- Test E control value [4]: H (H shows more than 50% of control values)

SMILES: CCn1c(-c2c(F)cccc2F)c(-c2ccccc2)cc(Br)c1=O [Compound 50]
- Test C control value [1]: H (H shows more than 50% of control values)
- Test B control value [2]: H (H shows more than 50% of control values)
- Test D control value [3]: L (L shows 50% or less of control values)
- Test E control value [4]: L (L shows 50% or less of control values)

SMILES: Cn1c(-c2c(F)cccc2F)c(-c2ccccc2)cc(Br)c1=O [Compound 51]
- Test C control value [1]: H (H shows more than 50% of control values)
- Test B control value [2]: H (H shows more than 50% of control values)
- Test D control value [3]: L (L shows 50% or less of control values)
- Test E control value [4]: H (H shows more than 50% of control values)

SMILES: CCN1C(=O)CCC(c2cc(OC)ccc2Cl)=C1c1c(F)cccc1F [Compound 52, 5-(2-chloro-5-methoxyphenyl)-6-(2,6-difluorophenyl)-1-ethyl-3,4-dihydropyridine-2(1H)-one]
- Test C control value [1]: H (H shows more than 50% of control values)
- Test B control value [2]: H (H shows more than 50% of control values)
- Test D control value [3]: H (H shows more than 50% of control values)
- Test E control value [4]: H (H shows more than 50% of control values)

SMILES: CCn1c(-c2c(F)cccc2F)c(-c2cc(OC)ccc2Cl)ccc1=O [Compound 53, 5-(2-chloro-5-methoxyphenyl)-6-(2,6-difluorophenyl)-1-ethylpyridine-2(1H)-one]
- Test C control value [1]: H (H shows more than 50% of control values)
- Test B control value [2]: H (H shows more than 50% of control values)
- Test D control value [3]: H (H shows more than 50% of control values)
- Test E control value [4]: H (H shows more than 50% of control values)

SMILES: CCn1c(-c2c(F)cccc2F)c(-c2cc(OC)ccc2Cl)cc(Br)c1=O [Compound 55]
- Test C control value [1]: H (H shows more than 50% of control values)
- Test B control value [2]: H (H shows more than 50% of control values)
- Test D control value [3]: H (H shows more than 50% of control values)
- Test E control value [4]: H (H shows more than 50% of control values)

SMILES: COc1ccc(Cl)c(C2=C(c3c(F)cccc3F)N(C)C(=O)CC2)c1 [Compound 56]
- Test C control value [1]: H (H shows more than 50% of control values)
- Test B control value [2]: H (H shows more than 50% of control values)
- Test D control value [3]: H (H shows more than 50% of control values)
- Test E control value [4]: H (H shows more than 50% of control values)

SMILES: COc1ccc(Cl)c(-c2ccc(=O)n(C)c2-c2c(F)cccc2F)c1 [Compound 57]
- Test C control value [1]: H (H shows more than 50% of control values)
- Test B control value [2]: H (H shows more than 50% of control values)
- Test D control value [3]: H (H shows more than 50% of control values)
- Test E control value [4]: H (H shows more than 50% of control values)
